Reference: PubChem BioAssay AID1345082 (National Center for Advancing Translational Sciences (NCATS), 2018)
Hit rate of the full screen: of about 94,000 compounds, about 4,000 (4.3%) were called active. This list was built around the results that the source calls inconclusive (neither active nor inactive); the mix of calls is not that of the screen. Calls come from the whole dose curve; as a rule, active = well fitted inhibition curve with a large enough effect; inconclusive = small, poorly fitted or top-dose-only effect; inactive = no such curve, though single readings can be large or run the other way. Potencies of inconclusive entries are doubtful fits and often do not repeat.

assay: Cytotoxic Profiling in NIH 3T3 Cell Line of Diverse Libraries Using Quantitative High-Throughput Screening; conditions: NIH 3T3 viability, CellTiter-Glo ATP luminescence, 48-72 h; activity change, negative = cytotoxicity: at 96.7 µM (top of the series); series mostly up to 96.7 µM; note: nearly all actives have a fitted effect of over 55% in size
Summary of the method: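 ATP-dependent luminescence (CellTiter-Glo) served as the viability signal for NIH 3T3 cells treated with compound for 48 or 72 hr at 37 °C.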
% is set by controls: 0 for no effect and ±100 for the full control effect; potency is the fitted concentration of half-maximal effect; tags give direction and shape of the fitted curve.

SMILES | activity change, negative = cytotoxicity | Potency | outcome
Cc1ccc(OCC(=O)NCCC2CCN(C(=O)Nc3ccccc3F)CC2)cc1 | inactive: -0.751% | – | –
COc1ccc(C(=O)Nc2ccc(-c3noc([C@@H]4CCCN4Cc4ccncc4)n3)cn2)cc1 | – | inconclusive: 39.8 µM [inhibitor, partial curve, poor fit] | –
O=C(NCc1ccc2c(c1)OCO2)c1nc(-c2cccc(C(F)(F)F)c2)c2cnccn12 | – | – | inactive
Cc1ccc(C(=O)N2CCC3(CC2)Cc2ccccc2NC3=O)cc1 | – | inconclusive: 112 µM [inhibitor, partial curve, poor fit] | –
O=C1NCCCCCCN(Cc2ccc(F)c(F)c2)[C@H]2CCC[C@@H]12 | – | inconclusive: 70.8 µM [inhibitor, single point] | –
O=C(NCCN1CCNC1=O)c1cnc2n1CCN(Cc1nccs1)CC2 | – | inconclusive: 2.82 µM [inhibitor, full curve, poor fit] | –
CCC1(N2CCN(S(=O)(=O)c3cccs3)CC2)CCN(S(C)(=O)=O)C1 (centres undefined) | – | inconclusive: 44.7 µM [inhibitor, partial curve, poor fit] | –
COC(=O)CNC(=O)C1CCN(C(=O)c2ccc(-c3ccccc3OC)cc2)CC1 | inactive: -6.13% | – | –
CC(=O)N1CCC(=O)N(Cc2ccccc2)Cc2cc(F)ccc21 | – | inconclusive: 79.4 µM [inhibitor, single point] | –
CCN1CC[C@H]2COC(=O)N2c2ccc(OC)cc2C1 | inactive: 4.3% [at 230 µM] | – | –
COc1cc(NC(=O)CC2CCOCC2)cc(OC)c1 | inactive: -16.3% | – | –
O=[S+]([O-])(c1cccs1)N1CCn2c(nnc2-c2ccc(Cl)cc2)C1 | – | inconclusive: 39.8 µM [inhibitor, partial curve] | –
O=C(Nc1nc2ccccc2s1)C1CC(=O)N(c2n[nH]c3cccc(F)c23)C1 (centres undefined) | – | active: 25.1 µM | –
COc1ccc(CCN2CCC(CN(C)Cc3ccc(C#CCCO)cc3)CC2)cc1 | – | inconclusive: 50.1 µM [inhibitor, partial curve, poor fit] | –
COC(=O)c1cccc(C(=O)N[C@H]2CO[C@H]3[C@@H]2OC[C@H]3OC(=O)Nc2ccc(Oc3ccccc3)cc2)c1 | inactive: -8.51% | – | –
Cc1ccc(C(=O)N2CCCC(n3cc(-c4nc(C5CC5)no4)nn3)C2)cc1F (centres undefined) | – | inconclusive: 39.8 µM [inhibitor, partial curve, poor fit] | –
O=C(NCc1ccccn1)c1ccc(-c2ccc(N3CCCCC3)nc2)cc1 | – | inconclusive: 35.5 µM [inhibitor, partial curve, poor fit] | –
COc1ccccc1-c1ccc2c(C(=O)NCCSC)nn(C)c2n1 | inactive: -17.3% | – | –
COc1ncccc1-c1cc(-c2ccccc2)nc2c(C)noc12 | – | inconclusive: 56.2 µM [inhibitor, partial curve, poor fit] | –
O=C(Nc1cccc(F)c1)Nc1ccnn1C1CCN(C(=O)C2CCC2)CC1 | inactive: -23.8% | – | –
COc1ccc(Cn2c3c(c(=O)n2Cc2ccccc2)CCN(Cc2cccnc2)C3)cc1 | – | inconclusive: 50.1 µM [inhibitor, partial curve, poor fit] | –
O=C(Cc1cnc[nH]1)N1Cc2ccccc2CC2(CCCN(CC3CCNCC3)C2)C1 (centres undefined) | inactive: -0.942% | – | –

SMILES | activity change, negative = cytotoxicity | Potency | outcome
COc1cc(NC(=O)N[C@H]2CO[C@H]3[C@@H]2OC[C@@H]3Nc2nccc(-c3cccs3)n2)cc(OC)c1 | – | inconclusive: 6.31 µM [inhibitor, full curve, poor fit] | –
Fc1ccc(CNC[C@H]2Cn3cc(-c4ccccc4)nc3CO2)cc1 | – | inconclusive: 89.1 µM [inhibitor, partial curve, poor fit] | –
O=[S+]1([O-])NC2(CCCN(Cc3cccc4ccccc34)C2)CNc2ccccc21 (centres undefined) | – | inconclusive: 15.8 µM [inhibitor, full curve, poor fit] | –
NC1CCN(C(=O)C2CCN(c3nc(-c4ccccc4)nc4c3CCC4)CC2)C1 (centres undefined) | – | inconclusive: 20 µM [inhibitor, full curve, poor fit] | –
COc1cccc(-c2noc(Nc3ccc(OC)c(OC)c3)n2)c1 | – | inconclusive: 44.7 µM [inhibitor, partial curve, poor fit] | –
O=S(=O)(c1ccccc1)N1CCCC(Cc2noc(-c3cnccn3)n2)C1 (centres undefined) | – | inconclusive: 70.8 µM [inhibitor, single point] | –
COCCCNc1ccnc(-c2nnc(C)n2-c2ccccc2)c1 | – | active: 100 µM | –
COc1ccc(F)cc1-c1cccc(C(=O)NCCNC(=O)c2ccccc2)c1 | – | inconclusive: 50.1 µM [inhibitor, partial curve, poor fit] | –
CN(C)[C@@H]1CN(C(=O)c2ccccc2F)CC[C@]1(O)c1ccccc1 | inactive: 1.06% | – | –
Cc1ccc(-c2nnc3ccc(N(C)CCN(C)C)nn23)nc1 | – | inconclusive: 100 µM [inhibitor, partial curve, poor fit] | –
COc1ccc(CN2C=C(C(=O)OCc3noc(-c4ccc(C)cc4)n3)C(C)=NS2(=O)=O)cc1 | – | inconclusive: 56.2 µM [inhibitor, partial curve, poor fit] | –
Cc1ccc(C(=O)N2CCC3(CC(Cc4ccccc4)=NO3)C2)cc1 (centres undefined) | – | inconclusive: 39.8 µM [inhibitor, partial curve, poor fit] | –
COc1ccccc1-c1ccc(CN2CCC(NC(=O)c3ccc(Cl)nc3)C2)cc1 (centres undefined) | – | inconclusive: 44.7 µM [inhibitor, partial curve, poor fit] | –
O=[S+]([O-])(Nc1cccnc1)c1ccc2c(c1)OCCN(Cc1ccccc1)C2 | – | inconclusive: 15.8 µM [inhibitor, full curve, poor fit] | –
COc1cc(S(=O)(=O)N2CCc3c(nc[nH]c3=O)C2)c(OC)cc1C | inactive: -16.2% | – | –
Cc1cccc(Cn2c(=O)c(-c3noc(C)n3)c3n(c2=O)CCCCC3)c1 | – | inconclusive: 28.2 µM [inhibitor, partial curve, poor fit] | –
CC(=O)NC[C@H]1CCN(S(=O)(=O)c2ccc3c(c2)CCC3)C[C@H]1N(C)C | inactive: -13.4% | – | –
Cc1ccccc1-c1cnc2[nH]cc(CC(=O)NCc3ccco3)c2c1 | – | inconclusive: 35.5 µM [inhibitor, partial curve, poor fit] | –
CC1(c2ccccc2)N(Cc2ccccc2)C(=O)OC12CCN(Cc1ccncc1)CC2 (centres undefined) | – | inconclusive: 89.1 µM [inhibitor, partial curve, poor fit] | –
O=C(NCC1(N2CCOCC2)CCCC1)c1cn(Cc2ccccc2Cl)nn1 | inactive: -1.86% | – | –
O=C(N[C@H]1CCN2C(=O)c3cc(-c4cccs4)ccc3NC(=O)[C@H]12)c1cccc(F)c1 | – | inconclusive: 79.4 µM [inhibitor, partial curve, poor fit] | –
O=C(c1ccc2[nH]ccc2c1)N1CC[C@@H]2COCCN(Cc3cccnc3)[C@@H]2C1 | inactive: 2.24% | – | –

SMILES | activity change, negative = cytotoxicity | Potency | outcome
COc1cccc(C(=O)NC2CCN(c3cc(C(F)(F)F)nc(C)n3)CC2)c1OC | – | inconclusive: 20 µM [inhibitor, partial curve] | –
CNC(=O)c1cc(-c2cccnc2)cc2c1OCCN2Cc1cccnc1 | – | inconclusive: 100 µM [inhibitor, partial curve, poor fit] | –
CCC(=O)N1CCC(CC)(N2CCN(S(=O)(=O)c3ccccc3C(F)(F)F)CC2)C1 (centres undefined) | – | inconclusive: 10 µM [inhibitor, full curve, poor fit] | –
C[S+](=O)([O-])N1CC2(CCN(Cc3ccc(Cl)cc3)C2)Cc2ccccc21 (centres undefined) | – | inconclusive: 79.4 µM [inhibitor, partial curve] | –
Cc1ccccc1S(=O)(=O)N1C[C@@H]2CCCN3CCC[C@@H]([C@H]23)[C@H]1CCCC(=O)N1CCOCC1 | inactive: 1.31% | – | –
COc1ccc(S(=O)(=O)N2C[C@@H]3C[C@H](C2)c2c(-c4ccc(NC(C)=O)cc4)ccc(=O)n2C3)cc1 | inactive: -3.19% | – | –
O=C(NC1CCN(c2ccc3nnc(-c4ccccc4)n3n2)C1)c1cccc(C(F)(F)F)c1 (centres undefined) | – | inconclusive: 79.4 µM [inhibitor, partial curve, poor fit] | –
CCCCn1c(CN(C)C(C)c2ccccc2OC)cnc1S(=O)(=O)CC (centres undefined) | – | inconclusive: 12.6 µM [inhibitor, full curve, poor fit] | –
O=C(NCc1ccc(F)cc1)C1(c2ccc(Cl)cc2)CCOCC1 | – | inconclusive: 56.2 µM [inhibitor, partial curve, poor fit] | –
CNC(=O)[C@@H]1C[C@@H](O)CN1C1CCN(C(=O)CC2CCCC2)CC1 | inactive: -0.0078% | – | –
COCC1CN(C(C)=O)CC12CCN(Cc1cccc(C#N)c1)CC2 (centres undefined) | inactive: -2.07% | – | –
COCc1cc(=O)n(CC(=O)NCc2ccc(C)cc2)c(N2CCOCC2)n1 | inactive: 1.74% | – | –
O=C(NCc1ccncc1)c1ccc2c(c1)OCCN(c1cccc(OC(F)(F)F)c1)C2 | – | inconclusive: 44.7 µM [inhibitor, partial curve, poor fit] | –
CN1CC(=O)N(c2ccccc2F)Cc2c(NCC3CCCCC3)ncnc21 | – | inconclusive: 50.1 µM [inhibitor, partial curve, poor fit] | –
COc1ccc(OCC(O)CN2CCC(=O)N(C3CCCC3)Cc3ccccc32)cc1 (centres undefined) | – | inconclusive: 50.1 µM [inhibitor, partial curve, poor fit] | –
O=C(Cc1ccc(F)cc1)Nc1cc(-c2ccccn2)nn1-c1ccccc1 | inactive: -23.5% | – | –
CN1CC(=O)N(C2CCC2)Cc2c(NCc3ccc(F)cc3)ncnc21 | – | inconclusive: 35.5 µM [inhibitor, partial curve] | –
Cc1noc(-c2nc(-c3ccccc3C)no2)n1 | – | – | inactive
CCSCCNC(=O)c1c(C)noc1-c1cccc(F)c1 | inactive: -2.73% | – | –
O=C(c1ccccn1)N1CCC2(CC1)NC(=O)N(Cc1cccc(Cl)c1)C2=O | inactive: 1.97% | – | –
